Over roughly 33,000 sequences, “E-score (-0.5 to 0.5)” has its median near -0.021; the highest 2% begin near 0.32. This is one part of the list.
These sequences were tested against T1, Zap1 (UniProt P47043) (assay: PBM E-score (8-mer binding enrichment) (E-score (-0.5 to 0.5)); higher = stronger / more preferred TF binding; most listed sequences are background and not binding sites). Settings: protein concentration: 200 nM; construct: GST-full length.
T1 sequence: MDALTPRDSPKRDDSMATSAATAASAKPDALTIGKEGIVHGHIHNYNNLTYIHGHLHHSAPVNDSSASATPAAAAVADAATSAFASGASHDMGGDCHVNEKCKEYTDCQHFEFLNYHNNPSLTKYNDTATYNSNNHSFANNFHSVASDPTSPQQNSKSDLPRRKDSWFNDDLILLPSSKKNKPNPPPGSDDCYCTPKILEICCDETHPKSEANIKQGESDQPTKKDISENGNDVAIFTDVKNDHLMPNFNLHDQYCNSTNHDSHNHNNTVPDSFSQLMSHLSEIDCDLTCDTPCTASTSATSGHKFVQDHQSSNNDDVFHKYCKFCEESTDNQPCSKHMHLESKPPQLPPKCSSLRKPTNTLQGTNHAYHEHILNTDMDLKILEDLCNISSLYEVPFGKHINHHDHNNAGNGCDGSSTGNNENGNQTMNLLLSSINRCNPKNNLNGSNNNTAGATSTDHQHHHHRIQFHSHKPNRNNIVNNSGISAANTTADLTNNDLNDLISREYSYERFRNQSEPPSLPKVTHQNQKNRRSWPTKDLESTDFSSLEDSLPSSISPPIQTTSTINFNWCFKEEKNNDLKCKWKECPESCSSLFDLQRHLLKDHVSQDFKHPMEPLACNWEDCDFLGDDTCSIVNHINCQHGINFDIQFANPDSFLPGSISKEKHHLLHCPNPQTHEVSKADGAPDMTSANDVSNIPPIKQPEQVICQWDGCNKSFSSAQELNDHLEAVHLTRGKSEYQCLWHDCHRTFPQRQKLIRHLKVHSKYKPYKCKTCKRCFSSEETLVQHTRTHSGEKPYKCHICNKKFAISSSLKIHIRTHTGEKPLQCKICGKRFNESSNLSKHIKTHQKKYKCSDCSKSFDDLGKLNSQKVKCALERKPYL
Description: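 Universal 'all 10-mer' protein binding microarrays (Agilent AMADID 015681) probed with GST-tagged S. cerevisiae TFs (full-length or DBD) made by in vitro transcription/translation (PURExpress), about 100-200 nM. Bound TF was detected with fluorescent anti-GST. Each ungapped 8-mer (which stands for itself and its reverse complement) is scored by the PBM enrichment score (E-score), a modified Wilcoxon-Mann-Whitney statistic from -0.5 to +0.5, computed with the Universal PBM Analysis Suite. Scale: above 0.35 generally sequence-specific binding.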

| Sequence | PBM E-score |
| --- | --- |
| GTATAATA | 0.236 |
| ATTGATTA | 0.15 |
| ATTAAATC | 0.127 |
| ACGTCGCC | -0.193 |
| ACCGGGGG | -0.112 |
| GTCCTAAA | 0.116 |
| TACAGGCA | -0.214 |
| GTGTACAC | -0.0296 |
| CGTGTTAC | -0.0928 |
| AGGGCATA | -0.0988 |
| AGCCAGAG | -0.133 |
| GACGTAGA | -0.288 |
| CAATGTAG | -0.0257 |
| AGGTCACC | 0.37 |
| ACCCAGCT | -0.126 |
| AGATCATG | 0.105 |
| ACGCCGGG | -0.27 |
| AAGTGCAC | -0.0219 |
| CCTGTCTC | -0.125 |
| AATAATAC | 0.195 |
| ACACGCTA | -0.194 |
| GCGACTTA | -0.34 |
| AGTCATGA | 0.0992 |
| CTCCGTAC | -0.153 |
| CGATAAAG | -0.032 |

| Sequence | PBM E-score |
| --- | --- |
| AGTCATTA | -0.17 |
| AGGACTGA | -0.271 |
| CGCTAAGC | -0.109 |
| ACAGAGAC | -0.0117 |
| ACACTCGC | -0.0732 |
| CGGTGGTA | 0.0926 |
| GTAGGTCA | 0.0322 |
| GACATCCA | -0.152 |
| GAGTTGGA | -0.0415 |
| GAGGCAGC | -0.19 |
| GCCAATCA | -0.309 |
| ACCTGCAC | 0.0167 |
| GGGGGAAC | -0.33 |
| CATATCGC | -0.075 |
| GGTTACAC | 0.403 |
| GAAATTGC | -0.0286 |
| CCCGAGAC | 0.0124 |
| AAACCACG | -0.0205 |
| ATTTGACG | -0.00957 |
| GCAACTCC | -0.0898 |
| CCTCCCTC | -0.0502 |
| ATCAGATG | -0.17 |
| GAACCCAA | 0.152 |
| GGATCTCA | -0.138 |
| CGTGATAC | -0.231 |

| Sequence | PBM E-score |
| --- | --- |
| AATGCGGC | -0.16 |
| GTATGGGA | -0.246 |
| GAGGTAGC | 0.0662 |
| AATAGTGT | 0.0982 |
| ACAAAACG | 0.133 |
| CGGTCACA | 0.163 |
| ACCGGTCC | -0.143 |
| AAGTCGTG | -0.119 |
| AGCAGACC | 0.058 |
| CCTCTGTA | -0.0834 |
| GACTAACA | 0.156 |
| GCCAACAA | 0.192 |
| GGAGGGGA | -0.0565 |
| CCAGCAAG | -0.11 |
| CACGGCCA | 0.0868 |
| CCTATGCC | -0.0867 |
| TGCGGTAA | 0.256 |
| CGGGGCAG | -0.349 |
| CCGACGAG | -0.079 |
| CTGGAGGA | -0.216 |
| CTTGAATC | -0.171 |
| CAAGATCC | -0.174 |
| TCATAGCA | -0.142 |
| CACCCAAG | -0.0295 |
| GAGAACTA | -0.0397 |

| Sequence | PBM E-score |
| --- | --- |
| TACCCCCA | 0.054 |
| AGCCTTAC | -0.305 |
| CGTGCTGA | -0.0725 |
| AACCTAGG | 0.232 |
| AAACGACG | 0.00215 |
| GCCGGGAA | -0.233 |
| CAGCATCC | -0.128 |
| CCGAGGGC | -0.0779 |
| GATCCTGA | -0.0316 |
| CTACTACC | 0.295 |
| TGCCTTAA | -0.0666 |
| ACACGTAA | -0.226 |
| GGTTAAAA | 0.385 |
| GGGAGACC | -0.19 |
| GTGATGTA | 0.013 |
| AACCCGCC | 0.178 |
| CTCACGCC | -0.147 |
| GTACAGAA | 0.181 |
| CACACTGA | 0.00589 |
| ATATAGGG | 0.094 |
| GTCGCCCA | -0.132 |
| CTTGTCAC | -0.0304 |
| CGTGGGTA | 0.116 |
| CTGAGTCC | -0.0582 |
| AGCATGAC | -0.0372 |

| Sequence | PBM E-score |
| --- | --- |
| AGATGTGG | 0.023 |
| AATCGATC | -0.142 |
| GCAAGTAC | -0.117 |
| AAGACAAG | -0.0435 |
| GAAAGGGC | -0.114 |
| TTCTCCAA | -0.0979 |
| CGCTAACG | -0.105 |
| GCAAGGCC | -0.117 |
| ATATCCAA | 0.127 |
| CCTAAACA | 0.0597 |
| CCGAGCGC | -0.0896 |
| TAGTCTAA | -0.0202 |
| AATTGTTC | 0.116 |
| ATCCTAGA | -0.174 |
| AGGGTACG | 0.296 |
| ACAGTAGA | 0.0781 |
| CAGTAGGG | 0.0465 |
| GGCGCGGA | -0.0798 |
| ATAGTCGG | -0.217 |
| AGTGTGAC | 0.0192 |
| ACGTCCCC | -0.107 |
| CCGAAGCC | -0.237 |
| CAGTGCGA | -0.233 |
| CCGGACTC | 0.04 |
| AGCTGATG | 0.0633 |

| Sequence | PBM E-score |
| --- | --- |
| CAGTACAG | 0.091 |
| GCCCAACA | -0.175 |
| AATTAGTC | 0.12 |
| AATCCCCT | 0.0541 |
| CAGGCTTC | -0.169 |
| ACTGGTCA | 0.258 |
| GATTATAA | 0.237 |
| AAAGGATA | 0.215 |
| AGCGGTAC | 0.169 |
| ATTGAGAG | -0.0133 |
| AAGGGCAT | -0.0978 |
| AATCACAA | -0.0184 |
| AGTCCGAT | -0.205 |
| GTCTCAAC | -0.0462 |
| CGGCTCAC | -0.0726 |
| CGCGAGCC | 0.0842 |
| CCGGGGAA | -0.199 |
| AATGGAAA | 0.0883 |
| GCAGAGAA | 0.0366 |
| GCCGGTCC | -0.19 |
| AAGCAGAG | -0.136 |
| ACTCCTGC | -0.22 |
| GCAGACCA | -0.131 |
| ATCTCGGG | 0.058 |
| GCACTTTA | 0.00491 |

| Sequence | PBM E-score |
| --- | --- |
| ACGCGACA | -0.084 |
| CATCTTAG | -0.0955 |
| ATCGATAG | 0.263 |
| GTTTACCA | 0.0041 |
| GTAGGGGA | -0.124 |
| ATCACCTC | 0.18 |
| AGCGTCCC | -0.0153 |
| ATGCCAAT | -0.136 |
| GAATAAAC | 0.0267 |
| ACGCGACT | -0.221 |
| ACGAGGAA | 0.0176 |
| GCGTGGTA | 0.15 |
| CCGTCGCA | -0.013 |
| CAATACGG | -0.0128 |
| CATTCGGG | 0.177 |
| AGCAAGTG | -0.101 |
| AATTTATA | 0.151 |
| CATGAAGG | 0.168 |
| ACTAGCTC | -0.137 |
| CCGTCTCA | -0.063 |
| GCGCGTCA | -0.0157 |
| ATTGGAGG | -0.161 |

From the supplement of paper PMC3334620
